{"source": "PubChem BioAssay AID1240", "about": "(Sanford-Burnham Center for Chemical Genomics, 2008)", "note": "Among all 50,000 compounds or so, about 800 (1.6%) showed an effect of 50% or more. This is one part of the list.", "data": [{"biological_target": "Bcl-2-like protein 10 (Homo sapiens) (UniProt Q9HD36)", "sequence (Q9HD36 whole entry, looked up)": "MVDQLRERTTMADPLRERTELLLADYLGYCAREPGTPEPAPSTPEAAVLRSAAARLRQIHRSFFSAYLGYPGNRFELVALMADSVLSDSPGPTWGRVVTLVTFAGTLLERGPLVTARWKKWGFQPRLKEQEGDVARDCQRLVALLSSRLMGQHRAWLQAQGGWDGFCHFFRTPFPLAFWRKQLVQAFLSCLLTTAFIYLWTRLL", "assay": "TR3 peptide-Bcl-B binding displacers, biochemical primary FP assay, phenotype converters (AID 1240);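 also: 0% = Bcl-B with tracer peptide and DMSO and 100% = tracer peptide lacking Bcl-B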", "settings": "GST-Bcl-B / FITC-TR3 peptide fluorescence polarization; stronger effect = higher value; compound at 3.75 mg/L", "units": {"displacement": "%"}, "values": [{"molecule": "CC1(O)CC(=O)C(C(=O)c2ccccc2)C(c2ccc([N+](=O)[O-])cc2)C1C(=O)c1ccccc1", "note": "(stereo not drawn)", "displacement": -3.5}, {"molecule": "O=C(c1cc2nc(-c3cccs3)cc(C(F)(F)F)n2n1)N1CCc2ccccc2C1", "displacement": 13.2}, {"molecule": "COc1ccc(NC(=O)C2=C(C)NC(=S)NC2c2ccc(C)cc2)cc1", "note": "(stereo not drawn)", "displacement": 36.2}, {"molecule": "CCOCc1ccc(O)c2ncccc12", "displacement": -14.7}, {"molecule": "O=C(CN1C(=O)S/C(=C/c2ccccc2F)C1=O)Nc1cccc(O)c1", "displacement": 13.2}, {"molecule": "COc1ccc(C(CC(=O)c2ccc(Br)cc2)Nc2ccc([N+](=O)[O-])cc2)cc1", "note": "(stereo not drawn)", "displacement": -6}, {"molecule": "C=C(Br)Cn1c(C(C)O)nc2ccccc21", "note": "(stereo not drawn)", "displacement": -10.9}, {"molecule": "COCCCNc1ccc2c3c(nc(=O)n2C)-c2ccccc2C(=O)c13", "displacement": 139}, {"molecule": "O=c1/c(=C\\c2cccc(OS(=O)(=O)c3cccc([N+](=O)[O-])c3)c2)sc2nc3ccccc3n12", "displacement": 101}, {"molecule": "COc1cc2c(cc1OC)C(C)N(C(=O)C1(c3ccccc3)CCCC1)CC2", "note": "(stereo not drawn)", "displacement": 1.4}, {"molecule": "CC(=O)N1CCN(c2cc(N3CCCC3)c(F)cc2[N+](=O)[O-])CC1", "displacement": 7}, {"molecule": "O=C(CNC(=O)c1ccccc1)OCC(=O)c1ccc(Cl)cc1", "displacement": 6}, {"molecule": "Cc1cc(Br)ccc1OCC(=O)O/N=C(\\N)c1ccncc1", "displacement": 0.9}, {"molecule": "O=C(Nc1cccc(C(F)(F)F)c1)c1nn2c(c1Br)NC(c1cccs1)CC2C(F)(F)F", "note": "(stereo not drawn)", "displacement": 4.5}, {"molecule": "COc1ccccc1/C=C(\\C)C(=O)c1c(C)cc(C)[nH]c1=O", "displacement": 15.6}, {"molecule": "CCOC(=O)C1=C(O)/C(=C/c2ccc(OCC(=O)Nc3ccc(C)cc3)cc2)N=C1C", "displacement": 14.7}, {"molecule": "O=C(NC12CC3CC(CC(C3)C1)C2)c1cncc(O)c1", "displacement": -1.8}, {"molecule": "O=C(Nc1ccc(Cl)cc1)Nc1nnc(-c2cccc([N+](=O)[O-])c2)s1", "displacement": 18.7}, {"molecule": "CCOC(=O)C(C)Oc1ccc2c(=O)c(Oc3ccc(OC)cc3)coc2c1", "note": "(stereo not drawn)", "displacement": 1.4}, {"molecule": "CC(=O)NS(=O)(=O)c1ccc(NS(=O)(=O)c2ccc([N+](=O)[O-])cc2)cc1", "displacement": -7}, {"molecule": "O=C(Nc1ccc(-c2nc3ccccc3o2)cc1)c1ccc(NC(=O)c2cc3ccccc3o2)cc1", "displacement": 33}, {"molecule": "Cc1cc(C)c2oc(-c3ccc(NC(=S)NC(=O)c4ccco4)cc3)nc2c1", "displacement": -28.6}, {"molecule": "Cc1ccn2c(C(=O)N/N=C\\c3ccc4c(c3)OCO4)c(C)nc2c1", "displacement": 7.7}, {"molecule": "Cc1cccc(C)c1OCC(=O)Nc1ccc(N(C)C)cc1", "displacement": 7.9}, {"molecule": "COc1ccc(CN2CCN(C(=O)c3cccc(F)c3)CC2)cc1OCc1ccccc1", "displacement": -10.5}, {"molecule": "Cc1ccc(OCc2nnc(NC(=O)c3ccccc3)s2)cc1C", "displacement": 16.2}, {"molecule": "COc1ccc([N+](=O)[O-])cc1NC(=O)c1c(Cl)cccc1Cl", "displacement": -3.9}, {"molecule": "Cc1ccc(NC(=O)C2C(c3ccccc3)=C2c2ccccc2)c(C)c1", "displacement": 4.5}, {"molecule": "COc1ccc(NC(=O)/C=C/c2ccccc2Cl)c([N+](=O)[O-])c1", "displacement": 15.9}, {"molecule": "O=C(N/N=C/c1ccc(OC(=O)c2cccs2)cc1)c1ccncc1", "displacement": 5.2}, {"molecule": "O=[N+]([O-])c1cccc(S(=O)(=O)Nc2cccc(F)c2)c1", "displacement": 43.2}, {"molecule": "CCOC(=O)c1ccc(NC(=O)CN(c2ccc(OC)cc2)S(=O)(=O)c2ccc(C)cc2)cc1", "displacement": 2.3}, {"molecule": "O=C(O/N=C(/c1ccncc1)c1ccc([N+](=O)[O-])cc1)c1ccccc1F", "displacement": 0.6}, {"molecule": "Cc1nnc(SCc2ccccc2)[nH]c1=O", "displacement": 3.9}, {"molecule": "O=C(/C=C/c1ccco1)Nc1cccc(Cl)c1Cl", "displacement": 3.5}, {"molecule": "CS(=O)(=O)N(Cc1ccccc1)c1ccc(C(=O)Nc2ccc(F)c(Cl)c2)cc1", "displacement": 0.4}, {"molecule": "CC(C)C(=O)Nc1ccc2oc(-c3ccc(Cl)cc3)nc2c1", "displacement": 2.4}, {"molecule": "COc1ccccc1-c1c(C(F)(F)F)oc2cc(OC(=O)c3ccc(Cl)cc3)ccc2c1=O", "displacement": 6.7}, {"molecule": "COc1cc(C2C3=C(CC(C)(C)CC3=O)OC3=C2C(=O)CC(C)(C)C3)ccc1OCc1ccccc1", "displacement": 12.6}, {"molecule": "CC(C)(C)NC(=S)Nc1ccccc1", "displacement": 10.5}, {"molecule": "CCOC(=O)C1=CN(c2ccc(C)c(C)c2)C=C(C(=O)OCC)C1c1ccsc1", "displacement": 0.6}, {"molecule": "CCNC(=O)c1sc2cc(C)ccc2c1Cl", "displacement": -9.9}, {"molecule": "Cc1ccc(S(=O)(=O)N(CC(=O)NCc2ccc(Cl)cc2)Cc2ccccc2)cc1", "displacement": -6}, {"molecule": "Cc1ccoc1C(=O)Nc1ccccc1Oc1ccccc1", "displacement": -14.6}, {"molecule": "CC1=NN(c2cccc(C(=O)O)c2)C(=O)/C1=C\\c1ccc(O)c([N+](=O)[O-])c1", "displacement": -33.6}, {"molecule": "Cc1ccc(NCC(O)Cn2c3ccccc3c3ccccc32)c(C)c1", "note": "(stereo not drawn)", "displacement": 5.9}, {"molecule": "COc1ccc(CNC(=O)CSCC(=O)Nc2ccc3ccccc3c2)cc1", "displacement": 6.9}, {"molecule": "Cc1ccc(C(=O)CCNc2ccc(F)cc2)o1", "displacement": 6.3}, {"molecule": "CCCOc1ccc(CSc2nncn2N)cc1", "displacement": 0.6}, {"molecule": "CC(C)(C)N1C(=O)c2ccc(C(=O)c3ccc4c(c3)C(=O)N(C(C)(C)C)C4=O)cc2C1=O", "displacement": 12.3}, {"molecule": "COC(=O)c1c(NC(=O)C2CCCCC2C(=O)O)sc2c1CCC(c1ccccc1)C2", "note": "(stereo not drawn)", "displacement": -6.6}, {"molecule": "COc1ccccc1C(=O)N/N=C/c1ccc(N2Cc3ccccc3C2)cc1", "displacement": 2.8}, {"molecule": "O=C(Nc1ccccc1)C(C(=O)Nc1ccccc1)C12CC3CC(CC(C3)C1)C2", "displacement": -6.7}, {"molecule": "COc1ccc2c(=O)cc(C(Cl)(Cl)Cl)oc2c1", "displacement": 5.6}, {"molecule": "N/C(=N\\OC(=O)c1ccc(Cl)c([N+](=O)[O-])c1)c1ccncc1", "displacement": 1}, {"molecule": "CCOC(=O)C1=NNC(C(=O)c2ccc(OC)cc2)C1c1ccccc1Cl", "note": "(stereo not drawn)", "displacement": -2.6}, {"molecule": "Cc1ccc(C=C2C(=O)c3ccccc3C2=O)o1", "displacement": 10.9}, {"molecule": "O=C(/C=C/Nc1cccc(Cl)c1Cl)c1ccccc1", "displacement": -6.4}, {"molecule": "Brc1ccc(CN2CCN(C3CCCC3)CC2)cc1", "displacement": 5.6}, {"molecule": "Cc1cc(C)n(C(=O)c2cc([N+](=O)[O-])ccc2Cl)n1", "displacement": 12.4}, {"molecule": "COc1cc(/C=C2/SC(=S)NC2=O)cc(Cl)c1OCc1ccccc1F", "displacement": -9}, {"molecule": "CCCCc1c(C)[nH]c2ccc(OC)cc2c1=S", "displacement": 0}, {"molecule": "CC(C(=O)N1c2ccccc2CCc2ccccc21)N1C(=O)c2ccccc2C1=O", "note": "(stereo not drawn)", "displacement": 12.2}, {"molecule": "c1ccc(-c2nnc(SC3CCCC3)nc2-c2ccccc2)cc1", "displacement": 0.1}, {"molecule": "COc1ccc(C(=CCl)c2ccc(OC)cc2)cc1", "displacement": -5.1}, {"molecule": "CC(C)c1cccc(C(C)C)c1NC(=O)c1cccs1", "displacement": 7.8}, {"molecule": "CCOCn1c2ccc(Cl)cc2c2cc(Cl)ccc21", "displacement": -10.7}, {"molecule": "C=CCN(c1ccc(C(=O)O)cc1)S(=O)(=O)c1ccc(/C=C/C(=O)O)cc1", "displacement": -32.4}, {"molecule": "CCc1ccccc1NC(=O)c1cc(-c2cccs2)nc2ccccc12", "displacement": -3.8}, {"molecule": "O=C1C=C(Nc2ccccc2C(=O)O)CC(c2ccccc2)C1", "note": "(stereo not drawn)", "displacement": 13}, {"molecule": "COc1ccccc1CNc1cc(C)ccc1OC", "displacement": 4.5}, {"molecule": "COc1cccc(/C=C/C(=O)c2ccc(C)cc2)c1OC", "displacement": 0.7}, {"molecule": "CCN(CC)CC(C)C(C)OC(=O)c1ccc(O)cc1", "note": "(stereo not drawn)", "displacement": -3.5}, {"molecule": "CCc1ccc(-c2csc(/C(C#N)=C/c3ccc(C)o3)n2)cc1", "displacement": -16.2}, {"molecule": "CC(C)c1nnc(NC(=O)/C=C/c2ccccc2)s1", "displacement": -6}, {"molecule": "COc1ccc(C2CC(=O)C3=C(C2)Nc2ccccc2NC3c2ccccc2OC)cc1", "note": "(stereo not drawn)", "displacement": -5.8}, {"molecule": "O=C(O)c1ccc(-c2ccc(/C=C3/SC(=O)N(c4ccccc4)C3=O)o2)cc1", "displacement": 27.7}, {"molecule": "CCCCOc1ccc(C(=O)Nc2cc(-c3nc4ccccc4o3)ccc2OC)cc1", "displacement": -5.1}, {"molecule": "O=C(Cc1ccccc1)N1N=C(c2ccncc2)CC1(O)C(F)(F)F", "note": "(stereo not drawn)", "displacement": -3.5}, {"molecule": "CCOC(=O)c1c(NC(=O)C(C)Oc2ccc(OC)cc2)sc2c1CCC(C)C2", "note": "(stereo not drawn)", "displacement": 11.8}, {"molecule": "O=C(Nc1ccccc1)NC(NC(=O)c1ccccc1)C(Cl)Cl", "note": "(stereo not drawn)", "displacement": -1.7}, {"molecule": "CCCC(=O)NNc1nc2c(c(=O)n1-c1ccccc1)C1(CCCCC1)Cc1ccccc1-2", "displacement": -11.8}, {"molecule": "COc1ccc(Br)cc1C(=O)Nc1cccc(-c2nc3ncccc3o2)c1C", "displacement": -3.8}, {"molecule": "CCc1nc2ccccc2n1CC(O)COCc1ccccc1", "note": "(stereo not drawn)", "displacement": -21.6}, {"molecule": "N#C/C(=C\\c1cn(CC(=O)Nc2ccccc2)c2ccccc12)C(=O)Nc1ccccc1Cl", "displacement": 126}, {"molecule": "O=C(c1ccc2c(c1)OCCO2)N1CCCCC1", "displacement": -26.4}, {"molecule": "COc1ccc(/C=C/C(C)=C/C=C/C(C)=O)cc1", "displacement": -10.7}, {"molecule": "Cc1ccc(Cl)cc1NC(=O)COc1cccc(C)c1C", "displacement": 0.6}, {"molecule": "N#CCSc1nnc(-c2ccccc2)c(-c2ccccc2)n1", "displacement": 3.9}, {"molecule": "CCOC(=O)c1c(C)nc(C)c(C(=O)OCC)c1-c1cccc(NC(=O)c2ccc(F)cc2)c1", "displacement": -4.6}, {"molecule": "O=C(CSc1nc2ccccc2o1)NCC(=O)c1ccccc1", "displacement": -4.6}, {"molecule": "C=CCN1C(=O)/C(=C\\c2ccc3ccccc3c2)SC1=S", "displacement": 13.9}, {"molecule": "COC(=O)C1NN=C(C(=O)c2ccccc2)C1c1ccccc1", "note": "(stereo not drawn)", "displacement": -1.2}, {"molecule": "COc1cc(NC(=O)c2ccccc2Br)cc(OC)c1", "displacement": 7.2}, {"molecule": "O=c1/c(=C\\c2ccc(OCc3cccc4ccccc34)cc2)sc2nc3ccccc3n12", "displacement": 11.6}, {"molecule": "COc1ccc(-n2c(O)c(C3=c4ccccc4=NC3=O)sc2=O)cc1", "displacement": 10.5}, {"molecule": "O=C(Nc1cccc(Br)c1)c1cnccn1", "displacement": -32.3}, {"molecule": "O=C(c1cc2ccccc2oc1=O)N1c2ccccc2Sc2ccccc21", "displacement": 9.6}, {"molecule": "O=C(NN1C(=O)C2C3C=CC(C4CC34)C2C1=O)c1cccc(Cl)c1", "note": "(stereo not drawn)", "displacement": -3.5}, {"molecule": "O=[N+]([O-])c1cccc(/C=N/Nc2cc(N3CCOCC3)nc(N3CCOCC3)n2)c1", "displacement": 10.2}, {"molecule": "Cc1ccc(N2C(=O)NC(=O)/C(=C/c3ccc(C)c([N+](=O)[O-])c3)C2=O)cc1", "displacement": -16.7}, {"molecule": "CCOC(=O)c1ccccc1NC(=O)CCCOc1ccccc1", "displacement": -5.6}, {"molecule": "CN1C(=O)/C(=C\\c2ccc(OC(=O)c3ccc(Cl)cc3)cc2)SC1=S", "displacement": 15.8}, {"molecule": "O=C(O)/C=C\\C(=O)Nc1ccccc1C#Cc1ccc(Br)cc1", "displacement": -7.8}, {"molecule": "CCOc1ccc(-c2cc(C)n3nc(C(=O)N(C)Cc4ccccc4)cc3n2)cc1", "displacement": 33.6}, {"molecule": "COC(=O)c1ccc(C2Nc3ccc4ncccc4c3C3=C2C(=O)CCC3)cc1", "note": "(stereo not drawn)", "displacement": 3.8}, {"molecule": "O=C(O)c1cccc(N2C(=O)c3ccc(Oc4cccc([N+](=O)[O-])c4)cc3C2=O)c1", "displacement": 1.6}, {"molecule": "CC1S/C(=N/N=C/c2cccc(Br)c2)NC1=O", "note": "(stereo not drawn)", "displacement": 7.2}]}]}
